The other results are listed elsewhere or left out.
B1: chr1:155884367:155884468:+|3pUTR|ENSG00000132718|msi1|total|mutant (ssRNA)
RNA: GGGAGUUCUACAGUCCGACGAUCUGGGUCUACUGAGCAGUGGGUGCUGAGGUGACAGGGGAGGAACCAGUUGUUCUGCCGCCCCGGAACUGCCUCAGUGUCUUUGCCAGAAAAAGGCAAAGAGGCGGACAGUGCAGGGCUCCUCAACAGAGGAUUGAGCAUCA
B2: chr3:44446857:44446958:-|CDS|ENSG00000185219|msi1|total|mutant (ssRNA)
RNA: GGGAGUUCUACAGUCCGACGAUCGGGAGACAUACCCUUUCCAGUCACCAGAGGAAACACACCAGAGCAGCACAGGCUGAACGCCGCCCGCCUGCACGGUCUUCCUCUCAGGACACAAAGUUGAGAUUACAGAAGCUAAAACCACAACAGAGGAUUGAGCAUCA
B3: chrX:46853785:46853899:+|CDS|ENSG00000102218|unk|FALSE|unique (ssRNA)
RNA: GGGAGUUCUACAGUCCGACGAUCCAUCAUUGAGUCUUCCUCAAAUAUCAAAUUUGGAUGUUUUCAAUGGUACUAUCCUGAAUUAGCUUUCCAGUUCAAAGAUGCAGGGCUAAGUAUCUUCAACAAUACAUGGAGUAACAUUCACAACAGAGGAUUGAGCAUCA
B4: chr2:85351679:85351862:-|CDS|ENSG00000042445|control|control|control (ssRNA)
RNA: GGGAGUUCUACAGUCCGACGAUCGAAGCUGGAUGUGGUGGUAAUUGGCAGUGGCUUUGGGGGCCUGGCUGCAGCUGCAAUUCUAGCUAAAGCUGGCAAGCGAGUCCUGGUGCUGGAACAACAUACCAAGGCAGGGGGCUGCUGCAACAGAGGAUUGAGCAUCA
B5: ENSG00000070961:be:win_5901|3pUTR|ENSG00000070961|bound_else_gene|NA|bound_elsewhere_windowed (ssRNA)
RNA: GGGAGUUCUACAGUCCGACGAUCGUAUUGAGCUUUUACAGUAUUCAUUUUUCAACUCAAGGCAAUGGCUUUCUACACCAACUCUAAUCCAUAAACGGGUCUUAUGACAUCUAUGAAGUAGUAGCAAGACAUGCUUAGUGUGUACAACAGAGGAUUGAGCAUCA
B6: chr15:48878618:48878734:+|CDS|ENSG00000255302|unk|FALSE|bound_elsewhere (ssRNA)
RNA: GGGAGUUCUACAGUCCGACGAUCAGAACCAGCCCUGGAUGGCGGGUUUCAGAUGCAUUAUGAGAAGACCCCGUUUGAUCAGUUAGCUUUUAUCGAAGAGCUUUUUUCACUGAUGGUUGUCAAUCGUCUGACCGAAGAACUCGGCAACAGAGGAUUGAGCAUCA
B7: chr9:99150529:99150630:+|3pUTR|ENSG00000106799|msi1|FALSE|unique (ssRNA)
RNA: GGGAGUUCUACAGUCCGACGAUCCAUUUGUUAUGUAUGUAGGAGUAAACGUUCGGUGGAUCCUCUGUCUUUGUAACUGAGGUUAGAGCUAGUGUGGUUUUGAGGUCUCACUACACUUUGAGGAAGGCAGCUUUUAAUUCAGUGCAACAGAGGAUUGAGCAUCA
B8: chr1:156672197:156672316:-|CDS|ENSG00000132688|unk|FALSE|bound_elsewhere (ssRNA)
RNA: GGGAGUUCUACAGUCCGACGAUCGACAUUGCAAUCCCUGCAAAAGGAGAAUCAAGAACUAAUGAAAUCUCUUGAAGGUAAUCUAGAGACAUUUUUAUUUCCAGGAACGGAAAAUCAAGAAUUAGUAAGUUCUCUGCAAGAGAACAACAGAGGAUUGAGCAUCA
B9: chr12:120700859:120700960:+|3pUTR|ENSG00000110917|msi1|total|mutant (ssRNA)
RNA: GGGAGUUCUACAGUCCGACGAUCUCUUUGCAUCUGUGUGGCUUGCUUCCAGUCUGGCCUGUCCUUUCCAGCUGCCUUUUGUCCCGCCUGCUAUGGGGGGCCAGAUUAUCUUGAUAAGAGCAGGUGAUUUGGGGACCCGCUGGGCAACAGAGGAUUGAGCAUCA
B10: chr19:34469546:34469571:+|3pUTR|ENSG00000126261|msi1_unk|total|mutant (ssRNA)
RNA: GGGAGUUCUACAGUCCGACGAUCGUUGCCUUUUUAAUGUAAAUACCCGCCGGUAUCAUUAACCGUUUCAAAAUAUUGUGGUUCCGUAAAGUUGAUACCUGGUUAUAAAUAUUAUGCCUUUAUUUUUGGCCCGAAGAAGAAUUACAACAGAGGAUUGAGCAUCA
B11: chr19:15878022:15878898:-|three_prime_utr|ENSG00000186115|control|control|control (ssRNA)
RNA: GGGAGUUCUACAGUCCGACGAUCUCUGCAGAGACCCACUCUGACCCCACUAAAAUGACCCCUGAUUCAUCAAAAGUGAAGCCUAGAAUUACCCUAAGACCCUGUUCCACAGUCCUGUAUUCCAUCCUAGAUAUCUACUCAAAACAACAGAGGAUUGAGCAUCA
B12: chr16:85089731:85089832:+|3pUTR|ENSG00000135709|msi1|total|mutant (ssRNA)
RNA: GGGAGUUCUACAGUCCGACGAUCUUGGAAGGUUUCCCUCCGGGGAAUGCCUCCCUGGAAUGUUCCAGAGACGGAACAUUCUCCCGAGACAACAGUCUGUGCUGCAGAUUGGUUGGAUCACAGAAUGUGUGUCUGGGGCAUUAUCAACAGAGGAUUGAGCAUCA
B13: chr7:123692404:123692516:-|CDS|ENSG00000106299|unk|FALSE|unique (ssRNA)
RNA: GGGAGUUCUACAGUCCGACGAUCCCUGCCUUCUGAUGGGGACCAUCAGGUUCCAACUACUGCAGGAAACAAAGCAGCUCUUUUAGAUCAAAUUAGAGAGGGUGCUCAGCUAAAAAAAGUGGAGCAGAACAGUCGGCCAGUGUCCAACAGAGGAUUGAGCAUCA
B14: chr12:21491601:21491717:-|CDS|ENSG00000004700|unk|total|mutant (ssRNA)
RNA: GGGAGUUCUACAGUCCGACGAUCGCUGCCUCCCACCGCUCUAACUGAGGAACUGGAUUCUAUAACCAGUGAGCUACAUGCAGCCGAAAUUCAAAUUCAAGAACUUACGGAAAGGCAACAAGAGCUUAUUCAGAAAAAAAAAGUCAACAGAGGAUUGAGCAUCA
B15: chr22:38483724:38483825:-|3pUTR|ENSG00000100201|msi1|total|mutant (ssRNA)
RNA: GGGAGUUCUACAGUCCGACGAUCACUUAUAAUUCAGGUUCUGCUGUUGGCUUCAGAACAUGAGCAGAAGAAUCGUUUUAUGCCCGUUAUUGCAUUCAUGGUUGAAACUCAACUCCGGGAAAGGGUUCCAAUGUAUUAAGCAAUCAACAGAGGAUUGAGCAUCA
B16: chr17:42842016:42842117:+|3pUTR|ENSG00000131467|msi1|total|mutant (ssRNA)
RNA: GGGAGUUCUACAGUCCGACGAUCUUACUGUUUCUUUCCUCUGUGGGGCAUUGGAUCCUCCCACAGUUGCCCUGGUGAUGACUCCGGGCUUCCCAUCUGUGUACAUCCCACUUUGAAUCUUGAUCGUGACAAGAAAUACCUCCGCAACAGAGGAUUGAGCAUCA
B17: chr14:73931500:73934255:-|three_prime_utr|ENSG00000156050|control|control|control (ssRNA)
RNA: GGGAGUUCUACAGUCCGACGAUCAGCUAACUUGGGUUUGAGUCAAGGCAGGGAAAACUUGGGUUUUGAGUCAUGGCUACUGUUAGAGGAUGGACAAAUGAAGAGUAGCAGAUUAACAGGCCAGGCGCAGUGGCUCACGCCUGUCAACAGAGGAUUGAGCAUCA
B18: chr9:128061232:128063427:-|three_prime_utr|ENSG00000171169|control|control|control (ssRNA)
RNA: GGGAGUUCUACAGUCCGACGAUCCCAUGAUGGGAUGAAAACUCCAUGGACUUGUAAGUGGGUCCUGUGAUUGGCCUUGGCCUUAGACCGGCCACGUGCACAGCUCCCUCUUUAAUAAACGCUUAGGGGUUGCACUGUUUUUGACAACAGAGGAUUGAGCAUCA
B19: chr8:37861146:37861251:-|3pUTR|ENSG00000156675|unk|total|mutant (ssRNA)
RNA: GGGAGUUCUACAGUCCGACGAUCCUGUGCAGAGCAAGAAGAUGAUACUUAUUUUUGAAUUUGUAUUUUUAAAACCCGAUUUACCGACUUUUUUUUUUUUUAACCCGGGCACUUGCUUCCUUCUCCGCUAAAAGCACCAGCUGACAACAGAGGAUUGAGCAUCA
B20: ENSG00000124766:be:win_2601|3pUTR|ENSG00000124766|bound_else_gene|NA|bound_elsewhere_windowed (ssRNA)
RNA: GGGAGUUCUACAGUCCGACGAUCAGGAUAAUAUAAAAAGCAGAUAGAUGGCGCUAUGUUUGAUUCCUACAACGAAAUUAUCACCAGCUUUUUUUCAUUCUUAACUCUUUAAAGGAUUCAAACGCAACUCAAAUCUGUGCUGGACAACAGAGGAUUGAGCAUCA
B21: ENSG00000113083:stop:overlap|stop_codon|ENSG00000113083|stop_codon|NA|stop_codon (ssRNA)
RNA: GGGAGUUCUACAGUCCGACGAUCGUGACAUUCGCUACACAGGACAUCAUGCGUAUGCCUCAGGCUGCACAAUUUCACCGUAUUAGAAGGCAAAGCAAAACUCCCAAUGGAUAAAUCAGUGCCUGGUGUUCUGAAGUGGGAAAACAACAGAGGAUUGAGCAUCA
B22: chr22:21445082:21445183:+|CDS|ENSG00000169635|msi1|total|mutant (ssRNA)
RNA: GGGAGUUCUACAGUCCGACGAUCCCUGUGUGACGUCAUCAUCAUGGUGGAGAACUCCAUCUUCCGGGCCCACAAGAACGUCCCCGCCGCCAGCAGCAUCUAUUUCAAGUCCCUGGUCCUGCACGACAACCUCAUCAACCUGGACAACAGAGGAUUGAGCAUCA

target: T1, UNK ZnF1-6 (called full-length) (human, UniProt Q9C0B0 30-357); assay: nsRBNS (natural sequence RNA bind-n-seq); RBNS binding buffer (assumed for nsRBNS): 25 mM Tris pH 7.5, 150 mM KCl, 3 mM MgCl2, 0.01% Triton X-100, 500 ug/ml BSA, 20 U/ml SUPERase-In, 4 C; UNK is unkempt and MSI1 is Musashi-1; names of the RNAs are library labels; protein concentration not given here; high values mean tight binding
T1 sequence: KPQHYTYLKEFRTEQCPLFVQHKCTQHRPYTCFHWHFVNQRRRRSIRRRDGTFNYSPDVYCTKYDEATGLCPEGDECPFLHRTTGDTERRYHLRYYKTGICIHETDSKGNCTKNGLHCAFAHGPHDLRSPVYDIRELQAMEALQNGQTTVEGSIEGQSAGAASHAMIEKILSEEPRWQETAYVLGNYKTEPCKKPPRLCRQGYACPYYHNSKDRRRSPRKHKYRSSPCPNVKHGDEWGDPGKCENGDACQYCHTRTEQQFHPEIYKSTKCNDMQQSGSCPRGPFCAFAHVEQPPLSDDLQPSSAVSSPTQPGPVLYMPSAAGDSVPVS

Binder | binding signal [enrichment R]
B1 | 0.568
B2 | 0.572
B3 | 0.443
B4 | 0.991
B5 | 0.631
B6 | 0.914
B7 | 0.659
B8 | 0.389
B9 | 0.675
B10 | 1.04
B11 | 1
B12 | 0.364
B13 | 0.767
B14 | 0.478
B15 | 0.245
B16 | 0.688
B17 | 0.866
B18 | 0.687
B19 | 1.82
B20 | 0.596
B21 | 1.19
B22 | 0.899

From PMC12136788
